Data from PubChem BioAssay AID504333 (National Center for Advancing Translational Sciences (NCATS), 2011).
The whole screen tested about 360,000 compounds, of which about 16,000 (4.4%) were called active. Inconclusive results, whose numbers are uncertain, are shown with a selection of clear calls. The call rests on the fitted dose curve; in most records, active means well fitted inhibition curve with a large enough effect; inconclusive means small, poorly fitted or top-dose-only effect; inactive means no such curve, though single readings can be large or run the other way. A potency beside an inconclusive call is a rough fit, not a confirmed value.
Further: nearly all actives have a fitted effect of over 60% in size.
Potency means the concentration at half of the fitted maximal effect; tags describe the fitted curve by direction and shape.

What follows are compounds tested against Bromodomain adjacent to zinc finger domain protein 2B (Homo sapiens) (UniProt Q9UIF8) (assay: qHTS Assay for Inhibitors of BAZ2B). Settings: AlphaScreen BAZ2B-H3K14Ac peptide displacement; series mostly up to 114 µM.
UniProt Q9UIF8, sequence (Q9UIF8 whole entry, looked up, the tested form may be a part): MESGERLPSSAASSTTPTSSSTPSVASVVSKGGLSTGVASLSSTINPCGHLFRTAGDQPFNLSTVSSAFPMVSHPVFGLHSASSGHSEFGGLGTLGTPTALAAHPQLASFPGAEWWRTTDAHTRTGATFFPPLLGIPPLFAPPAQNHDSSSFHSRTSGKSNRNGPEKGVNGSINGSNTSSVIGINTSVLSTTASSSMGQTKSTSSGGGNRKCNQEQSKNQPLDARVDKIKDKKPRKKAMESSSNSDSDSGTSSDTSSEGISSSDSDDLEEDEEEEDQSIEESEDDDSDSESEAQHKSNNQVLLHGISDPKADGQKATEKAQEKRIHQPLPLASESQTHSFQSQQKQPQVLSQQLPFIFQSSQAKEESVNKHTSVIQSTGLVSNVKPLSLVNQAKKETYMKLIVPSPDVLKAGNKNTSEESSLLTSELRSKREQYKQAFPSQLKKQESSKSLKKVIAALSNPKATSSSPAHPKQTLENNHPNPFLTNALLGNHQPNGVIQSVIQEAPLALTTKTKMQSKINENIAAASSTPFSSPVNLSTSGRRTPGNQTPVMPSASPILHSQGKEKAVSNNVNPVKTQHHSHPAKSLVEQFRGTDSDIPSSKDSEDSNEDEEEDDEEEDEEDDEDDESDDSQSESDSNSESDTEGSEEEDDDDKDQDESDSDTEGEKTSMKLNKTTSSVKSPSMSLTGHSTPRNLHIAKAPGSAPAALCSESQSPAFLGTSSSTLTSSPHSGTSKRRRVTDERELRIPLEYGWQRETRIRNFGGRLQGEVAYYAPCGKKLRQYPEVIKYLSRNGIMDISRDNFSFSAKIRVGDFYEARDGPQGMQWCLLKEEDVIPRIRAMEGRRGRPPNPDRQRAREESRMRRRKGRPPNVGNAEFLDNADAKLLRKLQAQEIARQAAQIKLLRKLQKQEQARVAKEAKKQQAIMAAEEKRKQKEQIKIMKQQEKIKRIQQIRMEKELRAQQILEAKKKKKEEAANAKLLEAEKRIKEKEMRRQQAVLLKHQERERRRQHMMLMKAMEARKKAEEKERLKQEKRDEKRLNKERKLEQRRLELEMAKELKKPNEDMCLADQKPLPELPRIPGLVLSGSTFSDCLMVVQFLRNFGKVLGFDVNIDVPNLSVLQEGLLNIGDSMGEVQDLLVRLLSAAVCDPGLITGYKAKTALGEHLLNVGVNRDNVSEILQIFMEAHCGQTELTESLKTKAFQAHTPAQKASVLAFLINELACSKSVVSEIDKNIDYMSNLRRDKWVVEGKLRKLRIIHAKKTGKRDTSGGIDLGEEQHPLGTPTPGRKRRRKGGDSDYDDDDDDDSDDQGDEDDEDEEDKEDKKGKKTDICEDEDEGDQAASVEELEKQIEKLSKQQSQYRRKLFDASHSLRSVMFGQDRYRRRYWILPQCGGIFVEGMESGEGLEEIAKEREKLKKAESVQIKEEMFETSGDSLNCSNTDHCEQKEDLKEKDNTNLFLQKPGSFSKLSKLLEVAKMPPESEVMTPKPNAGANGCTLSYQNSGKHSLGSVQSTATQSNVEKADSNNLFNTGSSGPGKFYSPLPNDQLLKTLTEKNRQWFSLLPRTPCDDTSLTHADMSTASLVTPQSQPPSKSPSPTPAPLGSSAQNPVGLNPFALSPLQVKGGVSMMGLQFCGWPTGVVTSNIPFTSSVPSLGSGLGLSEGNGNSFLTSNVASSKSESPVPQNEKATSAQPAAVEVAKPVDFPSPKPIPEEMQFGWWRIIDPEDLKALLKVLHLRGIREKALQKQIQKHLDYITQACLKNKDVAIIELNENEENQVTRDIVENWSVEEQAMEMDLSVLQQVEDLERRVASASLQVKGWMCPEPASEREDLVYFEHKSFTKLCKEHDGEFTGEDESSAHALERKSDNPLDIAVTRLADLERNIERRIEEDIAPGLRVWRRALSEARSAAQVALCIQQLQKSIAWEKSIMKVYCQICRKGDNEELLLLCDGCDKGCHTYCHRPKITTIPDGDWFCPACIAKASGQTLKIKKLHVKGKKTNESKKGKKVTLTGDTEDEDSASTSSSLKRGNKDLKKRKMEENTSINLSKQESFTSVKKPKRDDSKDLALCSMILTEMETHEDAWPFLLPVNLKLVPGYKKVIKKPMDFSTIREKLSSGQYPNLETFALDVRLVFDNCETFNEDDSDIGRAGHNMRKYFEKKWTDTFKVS
In short: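 In this displacement format the biotinylated H3(5-23) peptide acetylated at Lys14 serves as ligand at 50 nM, with BAZ2B at 50 nM in PBS pH 7.4 containing 0.01% Tween-20. Donor and acceptor beads are 10 ug/mL final.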
In the case of `O=C(Oc1ccc(Cl)c2cccnc12)c1ccco1`, the Potency is reported as active: 50.1 µM.
In the case of `O=C(CN(Cc1ccco1)C(=O)CNS(=O)(=O)c1ccc(Cl)cc1)NCC1CCCO1` (stereo not given), the Potency is reported as inconclusive: 79.4 µM [inhibitor, single point].
`CCc1nc2ccc(C(=O)N(C)CC(=O)Nc3ccc(Cl)c(C(F)(F)F)c3)cc2nc1CC` was tested, and the Potency was inconclusive: 89.1 µM [inhibitor, single point].
In the case of `COc1cc(NC(=S)NCCc2c[nH]c3ccccc23)c(OC)cc1Cl`, the Potency is reported as inconclusive: 50.1 µM [inhibitor, partial curve].
In the case of `CC1(C)OC1COc1c2ccoc2cc2oc(=O)ccc12` (stereo not given), the Potency is reported as “inactive”.
For `Cc1cccc(Cc2c(C)[nH]c(=O)c(C#N)c2C)c1`, the Potency was active: 89.1 µM.
With `Cc1cc(N/N=C/c2ccccc2O)c2ccccc2n1` the Potency was inconclusive: 39.8 µM [inhibitor, partial curve].
For `CC(C)CN(C(=O)COC(=O)c1ccccn1)c1c(N)n(Cc2ccccc2)c(=O)[nH]c1=O`, the Potency was inconclusive: 89.1 µM [inhibitor, single point].
`O=C(CSc1nc2nc(-c3cccs3)cc(C(F)(F)F)c2c(=O)[nH]1)Nc1ccc(F)c(F)c1` was tested, and the Potency was inconclusive: 79.4 µM [inhibitor, single point].
For `Cc1oc(C(=O)O)cc1CSCc1ccoc1C(=O)O`, the Potency was inconclusive: 89.1 µM [inhibitor, single point].
In the case of `CC(C)(C)c1ccc(NC(=O)COC(=O)c2ccc(CN3CCCC3=O)cc2)cc1`, the Potency is reported as “inactive”.
With `CCN(CC)c1ccc(S(=O)(=O)N2CCOCC2)cc1NC(=O)CSc1cccc[n+]1[O-]` the Potency was inconclusive: 100 µM [inhibitor, single point].
For `COc1ccc(/C=C\C(=O)NCc2ccc3[nH]c(C)cc3c2)cc1OC`, the Potency was inconclusive: 44.7 µM [inhibitor, partial curve].
`Cc1ccc(CN2CCSc3ccc(C(=O)NCCCN4CCN(C)CC4)cc32)cc1` was tested, and the Potency was inconclusive: 12.6 µM [inhibitor, full curve].
`O=C1C2C3C=CC(C2C(=O)N1c1ccccc1O)C1C2C(=O)N(c4ccccc4O)C(=O)C2C31` (stereo not given) was tested, and the Potency was “inactive”.
With `N#Cc1nc(COc2ccccc2Cl)oc1NCc1ccc(F)cc1` the Potency was inconclusive: 25.1 µM [inhibitor, full curve].
In the case of `N/C(=N\OC(=O)c1ccccc1Cl)c1ccccn1`, the Potency is reported as “inactive”.
For `CC(OCC(O)CNCC1COc2ccccc2O1)c1ccc(Cl)cc1` (stereo not given), the Potency was active: 79.4 µM.
`Cc1cccc(C)c1NC(=O)/C(C#N)=C/c1ccc(-c2ccc(C(=O)O)cc2)o1` was tested, and the Potency was inconclusive: 70.8 µM [inhibitor, single point].
With `Cc1cc(N)c2cc(NC(=O)/C=C/c3ccccc3Cl)ccc2n1` the Potency was inconclusive: 50.1 µM [inhibitor, partial curve].
For `Cc1ccc(NCC(=O)N/N=C/c2ccncc2)cc1`, the Potency was “inactive”.
In the case of `COc1cccc2c(N/N=C/c3ccc(O)c(O)c3)cc(C)nc12`, the Potency is reported as inconclusive: 44.7 µM [inhibitor, partial curve].
`Cc1occc1-c1nnc(SCC(=O)c2ccc(F)cc2)n1Cc1ccco1` was tested, and the Potency was active: 50.1 µM.
In the case of `O=C(CSc1nc(Nc2ccccc2)nc(N2CCOCC2)n1)Nc1cccc([N+](=O)[O-])c1`, the Potency is reported as inconclusive: 22.4 µM [inhibitor, full curve].
With `Cc1ccc(CNC(=O)C2CCCCN2S(=O)(=O)c2ccc(F)cc2)cc1` (stereo not given) the Potency was “inactive”.
With `CCOC(=O)c1[nH]c(C)c(/C(O)=C2\C(=O)C(=O)N(CCCn3ccnc3)C2c2ccncc2)c1C` (stereo not given) the Potency was inconclusive: 89.1 µM [inhibitor, single point].
With `O=C(NC(=S)Nc1ccc2c(c1)OCCO2)c1cccc2ccccc12` the Potency was inconclusive: 39.8 µM [inhibitor, full curve].
With `CCOC(=O)c1cnc(SCC(=O)Nc2ccc(N3CCOCC3)cc2)nc1N` the Potency was “inactive”.
For `Cc1cccc(NC(=O)c2sc3nc(-c4ccccc4)cn3c2C)c1C`, the Potency was “inactive”.
`COc1ccc(S(=O)(=O)Nc2cccc(C)n2)c2ccccc12` was tested, and the Potency was “inactive”.
For `Cn1c(SCC(=O)N/N=C/c2ccncc2)nc2ccccc21`, the Potency was inconclusive: 39.8 µM [inhibitor, single point].
With `CC1(C(=O)CSc2n[nH]c(-c3ccccc3Cl)n2)CCC(=O)O1` (stereo not given) the Potency was inconclusive: 89.1 µM [inhibitor, single point].
For `Cc1cc2c(Nc3cccc(O)c3)ncnc2s1`, the Potency was inconclusive: 100 µM [inhibitor, single point].
With `Cc1ccc(C)c(NC(=O)CSc2sc3c(O)cc(=O)[nH]c3c2C#N)c1` the Potency was active: 50.1 µM.
With `CCC(C)(C)NC(=O)CN(C(=O)CCC(=O)Nc1nccs1)c1cccc(C)c1` the Potency was inconclusive: 89.1 µM [inhibitor, single point].
For `Cc1ccc(C(=O)N/C(=C\c2ccc(-c3ccccc3[N+](=O)[O-])o2)C(=O)NCCN(C)C)cc1`, the Potency was “inactive”.
`O=C(/C=C/c1cn(-c2ccccc2)nc1-c1cccnc1)c1ccco1` was tested, and the Potency was inconclusive: 50.1 µM [inhibitor, partial curve].
In the case of `Cc1ccc(OCC(=O)Nc2ccc3c(c2)CCC3)c([N+](=O)[O-])n1`, the Potency is reported as inconclusive: 89.1 µM [inhibitor, single point].
With `Cn1nnnc1SCc1ccc(C(=O)Nc2ccc(Br)cc2)cc1` the Potency was inconclusive: 89.1 µM [inhibitor, single point].
In the case of `Fc1ccccc1Oc1nc(-c2ccncc2)nc2ccccc12`, the Potency is reported as “inactive”.
`CCc1ccc2nc3n[nH]c(N)c3cc2c1` was tested, and the Potency was inconclusive: 31.6 µM [inhibitor, single point].
In the case of `O=C(CS(=O)c1ccc(C(F)(F)F)cc1[N+](=O)[O-])Oc1ccccc1` (stereo not given), the Potency is reported as inconclusive: 31.6 µM [inhibitor, partial curve, poor fit].
In the case of `CC(CNC(=O)c1cc(-c2ccccc2)n[nH]1)c1ccccc1` (stereo not given), the Potency is reported as “inactive”.
For `Cc1cc(-c2nnco2)c(C)n1-c1ccccc1`, the Potency was inconclusive: 89.1 µM [inhibitor, single point].
With `[O-]/C(=C(\C(=S)Nc1ccc(SC(F)F)cc1)[n+]1ccccc1)c1cc(Cl)ccc1Cl` the Potency was inconclusive: 17.8 µM [inhibitor, full curve].
